Laboratory results from article PMC5787466, “Accelerated bottom-up drug design platform enables the discovery of novel stearoyl-CoA desaturase 1 inhibitors for cancer therapy” (Oncotarget, 2017).

Assays:
4 ccRCC cell lines = assay: High-throughput proliferative screen, single point; settings: 10μM; proliferative screen in ccRCC cell lines
SCD1 = settings: known value, no reference given; read-out: Known IC50; cited from earlier work

CNC(=O)c1cccc(OC2CCN(C(=O)c3ccccc3C(F)(F)F)CC2)c1 [SetB.73]
Single Pt Act (10μM) (4 ccRCC cell lines): No

CNC(=O)c1ccc(O[C@H]2CCN(C(=O)c3ccccc3C(F)(F)F)C2)cc1 [SetB.68]
Single Pt Act (10μM) (4 ccRCC cell lines): No

NC(=O)c1cnc(N2CCN(C(=O)c3ccccc3C(F)(F)F)CC2)s1 [MerckFrost MF-152, reference compound]
IC50 (SCD1): 100 nM

CNC(=O)Cc1cccc(OC2CCN(C(=O)c3ccccc3C(F)(F)F)CC2)c1 [SetB.74]
Single Pt Act (10μM) (4 ccRCC cell lines): No
